90 compounds from PubChem BioAssay AID463173 (ICCB-Longwood Screening Facility, Harvard Medical School, 2010) can be followed below.

Among all 52,000 compounds or so, about 1,700 (3.3%) were called active. No stated cut-off is given here; in the data, active means survival mostly below about 52% (no sharp cut-off); inactive means mostly above about 56%. Some of the results follow.

This assay deals with Wild type. Nature of the assay: S. aureus survival, RN4220 and DeltatarO strains – OD600, teichoic acid synthesis inhibitors, primary screen (AID 463173). To be noted: S. aureus RN4220 wild type/DeltatarO growth, OD600, 18 h, active compounds read low, screened at 18.75 µg/mL (by protocol).
Consider `Cc1ccccc1-c1nnc(SCC(=O)N2c3ccccc3Sc3ccccc32)o1`, for which the survival is inactive: 105%. On to `Cc1ccc(C)c(N2CCN(C(=O)c3ccc4[nH]c(C)c(C)c4c3)CC2)c1`, for which the survival is inactive: 74%. Next, `CC(Sc1nnc(C2CCCCC2)n1-c1cccc(Cl)c1)C(=O)O` (stereo not given): inactive: 122%. The figure for `CCCC(CCC)C(=O)Nc1cccc(-c2cn3cccnc3n2)c1` is inactive: 75%; for `Cc1ccc(OCc2nc(-c3ccc(C(=O)NCCc4ccc(S(N)(=O)=O)cc4)cc3)oc2C)cc1` it is inactive: 84%. The figure for `CCc1ccc(NC(=O)CCCc2nc(-c3ccco3)no2)cc1` is inactive: 79%; for `COc1cc2[nH]c(=O)n(CCCC(=O)NCc3ccccc3)c(=O)c2cc1OC` it is inactive: 133%; for `COc1ccccc1CNC(=O)CN1C(=O)CCc2cc(S(=O)(=O)N3CCOCC3)ccc21` it is inactive: 131%. Consider `O=C(Nc1ccc2nc(SCC(=O)N3CCCC3)sc2c1)c1ccccc1F`, for which the survival was inactive: 70%. In the case of `COc1ccc(CNC(=O)c2c(Nc3ccccc3C)sc(C(=O)c3ccccc3)c2N)cc1`, the survival is inactive: 70%.

Turning to `O=C(CCc1ccccc1)NNc1cc(N2CCCCC2)nc(N2CCCCC2)n1`, the survival was inactive: 110%. The figure for `COc1ccc2[nH]c3c(=O)n(/N=C/c4ccccc4)cnc3c2c1` is inactive: 108%. The figure for `COc1ccc(NC(=O)c2cc(-c3ccccc3O)no2)cc1` is inactive: 83%; for `CC1CN(C(=O)N2CCC(C(=O)NCc3ccco3)CC2)c2cc(Cl)ccc2O1` (stereo not given) it is inactive: 84%; for `Cc1ccc(NC(=O)CN2C(=O)CCc3cc(S(=O)(=O)N4CCCCC4)ccc32)cc1N(C)C` it is inactive: 73%. Next, `O=C(CSc1nc(-c2cccs2)nc2cc(=O)[nH]n12)Nc1ccc(F)cc1`: inactive: 75%. In the case of `CCOc1ccc(NC(=O)CNS(=O)(=O)c2ccc(Br)s2)cc1`, the survival is inactive: 70%. Next, `CC(C)NC(=O)C1CCCN1C(=O)Nc1ccccc1` (stereo not given): inactive: 109%; `CCOC(=O)c1cnc2c(C(F)(F)F)cccc2c1Nc1cccc(C(=O)OC)c1`: inactive: 26%; `CCOc1ccccc1NC(=O)CSc1nc2c(oc3ccccc32)c(=O)n1Cc1ccco1`: inactive: 86%. The figure for `COc1ccc(CCNC(=O)Cn2cc(S(=O)(=O)Cc3cccc(Cl)c3)c3ccccc32)cc1OC` is inactive: 128%; for `COc1ccc(-c2noc(CSc3nnc(-c4ccc(Cl)cc4)n3C)n2)cc1OC` it is inactive: 94%.

With `CCc1cnc2c(c1SCC(=O)Nc1cc(Cl)ccc1OC)c(=O)n(C)c(=O)n2C`, the survival is inactive: 73%. The figure for `Cc1ccc(Cl)cc1NC(=O)CSc1nc(C)c(C)c(C)c1C#N` is inactive: 86%; for `CC(C)c1ccc(NC(=O)CSc2nc(=O)n(Cc3cccnc3)c3c2CCC3)cc1` it is inactive: 152%. The figure for `CN1CCN(C(=O)Nc2cccc(Cl)c2)c2cccnc21` is inactive: 118%; for `Cc1ccc(CNC(=O)C2CCCN(S(=O)(=O)c3ccc4c(ccn4C)c3)C2)cc1` (stereo not given) it is inactive: 81%. Take `CCCCN(CCCC)CCNC(=O)c1cc(=O)[nH]c2ccc(S(=O)(=O)N3CCCCCC3)cc12`: the survival is inactive: 129%. The figure for `CCc1ccc(CNC(=O)C2CCN(C(=O)N3CC(CC)Oc4ccc(C)cc43)CC2)cc1` (stereo not given) is inactive: 56%; for `Cc1cc(C)c(NC(=O)CSc2ncc(S(=O)(=O)c3ccc(C(C)(C)C)cc3)c(=O)[nH]2)c(C)c1` it is inactive: 85%; for `O=C(NC1CCCC1)c1ccc2c(c1)N(Cc1ccccc1Cl)C(=O)c1ccccc1S2` it is inactive: 67%. `COc1ccccc1Nc1c2c(nc3ccc(NC(=O)c4cccc(F)c4)cc13)CCCC2`: the survival was inactive: 35%. Next, `CCc1ccccc1Nc1nn2c(=O)c3ccc(C(=O)NC4CCCCC4)cc3nc2s1`: inactive: 71%; `COc1cc(OC)c(NC(=O)c2c3c(nn2C)-c2ccccc2SC3)cc1Cl`: inactive: 117%; `Cc1ccn2c(=O)c(C(=O)NCc3ccccc3Cl)c(O)nc2c1`: inactive: 82%. The figure for `CCOC(=O)c1c(N)n(-c2cccc(C)c2C)c2nc3ccccc3nc12` is inactive: 71%. Next, `COC(=O)C(CCSC)NC(=O)c1cc2c(n(-c3ccc(OC)cc3)c1=O)CC(C)(C)CC2=O` (stereo not given): inactive: 82%; `COc1cccc(C(=O)Nc2ccc(NC(=O)c3ccc(C(C)(C)C)cc3)cc2)c1`: inactive: 122%. `CCOC(=O)CC(N)c1ccc2c(c1)OCO2` (stereo not given): the survival was inactive: 111%. In the case of `Cc1ccc(N2CC(NC(=O)C3CCCCC3)CC2=O)cc1C` (stereo not given), the survival is inactive: 81%. In the case of `COc1cccc2c1Oc1ncccc1N(c1ccc(C(=O)NCc3cccc(C)c3)s1)C2`, the survival is inactive: 87%. `CC(=O)Nc1ccc2c(c1)n(C)c(=O)n2C`: the survival is inactive: 98%. The figure for `CC1(C(=O)Nc2ncc(Cc3ccc(Br)cc3)s2)Cc2ccccc2C(=O)O1` (stereo not given) is inactive: 118%; for `COc1ccc(S(=O)(=O)Nc2cccc(-c3ccc(N4CCCCCC4)nn3)c2)c(OC)c1` it is inactive: 76%; for `COc1ccc(-c2nc3scc(CCNC(=O)Cc4ccc(F)cc4)n3n2)cc1` it is inactive: 74%. The figure for `CCC(C)NC(=O)c1ccc2nc(Cc3ccccc3)oc2c1` (stereo not given) is inactive: 66%; for `CCN(c1ccccc1)S(=O)(=O)c1nnc(NC(=O)c2ccco2)s1` it is inactive: 64%. The figure for `Cc1ccccc1-c1nnc(SCC(=O)N2CCCCC2)o1` is inactive: 64%; for `CCOc1ccc(NS(=O)(=O)c2ccc3nc(-c4ccccc4)[nH]c3c2)cc1` it is inactive: 57%; for `COc1cc(OC)c(Nc2c3c(nc4nc(-c5cccs5)nn24)CCCC3)cc1Cl` it is inactive: 85%. As to `O=C(Nc1cc(Cl)cc(Cl)c1)c1ccc(F)c(S(=O)(=O)NCc2ccccc2Cl)c1`, the survival was inactive: 92%.

For the compound `Cc1csc2nc(COc3ccccc3NC(=O)c3ccccc3Cl)cc(=O)n12`, the survival is inactive: 87%. `COc1cc(CN(C(=O)COc2ccc(Cl)c(C)c2)c2ccccn2)cc(OC)c1OC`: the survival was inactive: 78%. The figure for `Cc1ccc(-c2nc(CS(=O)(=O)CC(=O)Nc3cc(C)ccc3C)c(C)o2)cc1` is inactive: 137%. On to `Cn1c(=O)cc(OCC(=O)NCc2ccc(F)cc2Cl)c2ccccc21`, for which the survival is inactive: 117%. Next, `COc1ccc(CCNC(=O)CCCn2nc(C)c3sc4ccccc4c3c2=O)cc1OC`: inactive: 85%; `Cc1nn(-c2ccccc2)c2sc(C(=O)Nc3cccc(O)c3)cc12`: inactive: 43%; `CC(=O)N1CCN(c2nc(N3CCCCC3)nc(N3CCCCC3)n2)CC1`: inactive: 101%. Next, `Cc1ccc(-n2ncc(C(=O)Nc3c(Cl)cccc3Cl)c2C2CCNCC2)cc1`: inactive: 129%. Next, `CSc1nc2c([nH]c3ccccc32)c(=O)n1-c1ccc(C)cc1`: inactive: 76%; `Cc1ccc2nc(-c3ccc(Cl)c(NC(=O)c4ccc(Br)o4)c3)oc2c1`: inactive: 69%; `O=C(COCc1cc(-c2ccc3c(c2)OCO3)on1)NCc1ccc(F)cc1`: inactive: 80%. `CSc1ccc(CCNC(=O)c2ccc(CS(=O)Cc3ccc(Cl)cc3)o2)cc1` (stereo not given): the survival is inactive: 71%. Next, `O=C(CSc1nc(-c2cccs2)nc2cc(=O)[nH]n12)Nc1ccccc1Cl`: inactive: 88%.

For the compound `COc1cc(C2CC(=O)Nc3c2c(C)nn3-c2nncc(-c3ccccc3)n2)cc(OC)c1OC` (stereo not given), the survival is inactive: 89%. The figure for `Cc1ccc(C)c(N2CCN(S(=O)(=O)c3cc(C(=O)Nc4cc(Cl)cc(Cl)c4)ccc3F)CC2)c1` is inactive: 85%; for `Cc1ccc(Cl)cc1NC(=O)c1cc(S(=O)(=O)N2CCCCCC2)cn1C` it is inactive: 78%. The figure for `CCc1ccc2c(c1)NC(c1cccnc1)=NC(c1ccc(C(C)(C)C)cc1)=N2` is inactive: 71%; for `Cc1cccc(-c2nc(CSCC(=O)N3CCN(c4cccc(C)c4C)CC3)c(C)o2)c1` it is active: 0%; for `CC(=O)Nc1nnc(SCC(=O)N2C(C)CCCC2C)s1` (stereo not given) it is inactive: 97%. The figure for `O=C(Nc1ccccc1Cl)c1cc2c(-c3ccccc3)nn(-c3ccccc3)c2s1` is inactive: 67%; for `CCN(c1ccccc1)c1nnc(NC(=O)Nc2ccc(C)cc2)s1` it is inactive: 88%; for `O=C(OCc1cc(=O)n2nc(-c3cccs3)sc2n1)c1ccc(F)cc1` it is inactive: 72%.

With `Cc1ccc2nc3c(cc(C#N)c(=O)n3-c3nnc(SCc4ccccc4Cl)s3)c(=O)n2c1`, the survival is inactive: 104%. The figure for `COc1ccc(/C=C/c2nc(C#N)c(N3CCC(C)CC3)o2)cc1OC` is inactive: 98%; for `N#CCCCn1c(=O)oc2ccccc21` it is inactive: 84%; for `COc1ccc(Nc2ncc3c(n2)CCN(Cc2ccc(Br)s2)C3)c(OC)c1` it is inactive: 127%. The figure for `CCOc1ccc(C(=O)Nc2cccc(-c3nc4cccnc4s3)c2C)cc1OCC` is inactive: 98%; for `CCC(=O)Nc1cc2c(cc1C(=O)CC)OCCO2` it is inactive: 113%. For `CSc1ccc(CCNC(=O)c2ccc(-n3c(C)cc4c3CCCC4)cc2)cc1`, the survival is inactive: 83%. The figure for `CC(=O)N1N=C(c2ccc(C)cc2)CC1c1cn(-c2ccccc2)nc1-c1cccs1` (stereo not given) is inactive: 132%. Consider `C=CCn1c(=O)[nH]c2c1c(=O)n(C)c(=O)n2C`, for which the survival is inactive: 107%. The figure for `COc1ccc(Br)cc1CNC(=O)C1CCCCN1S(=O)(=O)c1ccc(F)cc1` (stereo not given) is inactive: 88%.

Take `Cc1ccc(OCc2nc3ccccc3n2Cc2ccccc2Cl)cc1`: the survival was active: 7%.

Consider `CCCNC(=O)CCc1c(C)nc2nc(-c3cc(OC)cc(OC)c3)nn2c1C`, for which the survival is inactive: 78%. The figure for `COc1cccc(CNC(=O)CCC(=O)N2Cc3cccc(OC)c3Oc3ncccc32)c1OC` is inactive: 66%; for `COc1ccc(NC(=O)c2ccc(COc3ccccc3OC)o2)cc1OC` it is inactive: 71%. The figure for `CCn1cc(C(=O)NCc2ccccc2)c(=O)c2cc(S(=O)(=O)N3CCCCCC3)ccc21` is inactive: 65%; for `O=C(Cc1ccccc1)Nc1c(C(=O)Nc2ccccc2F)oc2ccccc12` it is inactive: 86%. Next, `CCc1ccc(-c2[nH]c3c(c2-c2sc(C)c(C(=O)OC)c2O)c(=O)n(C)c(=O)n3C)cc1`: inactive: 85%.
